# Among all 360,000 compounds or so, about 25,000 (6.9%) were called active. Inconclusive results, whose numbers are uncertain, are shown with a selection of clear calls. The call rests on the fitted dose curve; in most records, active means well fitted inhibition curve with a large enough effect; inconclusive means small, poorly fitted or top-dose-only effect; inactive means flat fitted curve, though single readings scatter. A potency beside an inconclusive call is a rough fit, not a confirmed value.
# Target: Luciferin 4-monooxygenase (Photinus pyralis) (UniProt P08659)
# Experiment: qHTS profiling assay for firefly luciferase inhibitor/activator using purifed enzyme and Km concentrations of substrates (counterscreen for miR-21 project); further: nearly all actives have a fitted effect of over 55% in size
# Conditions: purified FLuc, luminescence inhibition; series mostly up to 57.5 µM
# How it was run: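 Biochemical qHTS of compounds, final roughly 60 µM downward over six points, against 10 nM purified firefly luciferase using Km concentrations of substrates (10 uM D-luciferin, 10 uM ATP) in Tris acetate pH 7.5 buffer; luminescence output.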
# Potency means the concentration at half of the fitted maximal effect; tags describe the fitted curve by direction and shape.
# UniProt P08659, sequence (P08659 whole entry, looked up): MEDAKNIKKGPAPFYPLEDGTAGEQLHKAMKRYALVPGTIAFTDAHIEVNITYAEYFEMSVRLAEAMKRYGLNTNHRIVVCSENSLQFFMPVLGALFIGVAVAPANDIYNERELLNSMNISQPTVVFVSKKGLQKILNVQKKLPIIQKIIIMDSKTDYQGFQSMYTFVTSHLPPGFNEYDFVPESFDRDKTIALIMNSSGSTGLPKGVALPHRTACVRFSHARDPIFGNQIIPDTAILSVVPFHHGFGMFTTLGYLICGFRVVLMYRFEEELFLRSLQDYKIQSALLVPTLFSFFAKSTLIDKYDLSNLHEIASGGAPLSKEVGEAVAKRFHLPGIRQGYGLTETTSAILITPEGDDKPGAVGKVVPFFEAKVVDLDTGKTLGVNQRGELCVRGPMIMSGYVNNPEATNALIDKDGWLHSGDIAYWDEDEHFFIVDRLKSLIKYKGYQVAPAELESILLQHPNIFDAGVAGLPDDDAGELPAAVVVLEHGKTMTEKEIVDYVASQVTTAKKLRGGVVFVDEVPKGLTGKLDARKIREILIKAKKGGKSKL
row,SMILES,Potency
1,O=C(COC(=O)Cc1ccccc1F)Nc1cc(S(=O)(=O)N2CCOCC2)ccc1N1CCCC1,inactive
2,COC(=O)C1CCN(C(=O)/C=C/c2ccc3c(c2)OCO3)CC1,"inconclusive: 23.9 µM [inhibitor, single point]"
3,Nc1cc(N)nc(SCCOc2ccccc2F)n1,"inconclusive: 30.1 µM [inhibitor, partial curve]"
4,Nc1cc(Cl)ccc1Oc1ccc2ccccc2c1,"inconclusive: 21.3 µM [inhibitor, partial curve]"
5,COc1cc(OC)c(OC)cc1/C=C/c1cc(C(=O)O)c2ccccc2n1,active: 10.7 µM
6,CCOC(=O)c1ccc(NC(=O)CSc2nnc(C3CC3)n2CC)cc1,"inconclusive: 26.9 µM [inhibitor, partial curve, poor fit]"
7,CCCCNC(=O)c1onc(CSc2cccc(C)c2)c1C(=O)O,"inconclusive: 19 µM [inhibitor, single point]"
8,Nc1ccccc1SCc1csc(-c2ccc(Cl)cc2)n1,active: 13.5 µM
9,COc1ccc(C2CC(c3ccccc3)=NN2C(=O)CN2CCN(Cc3ccccc3)CC2)cc1 (configuration not stated),inactive
10,CC(=O)c1cccc(Nc2nc(=O)c3cccnc3s2)c1,"inconclusive: 21.3 µM [inhibitor, single point]"
11,CCOc1ccc(OCc2ccc(C(=O)NC(C)(C)C)o2)cc1,inactive
12,Cc1nc2ccc(S(=O)(=O)N(C)CC(=O)NC(C)c3ccccc3)cc2s1 (configuration not stated),inactive
13,Cn1nc(C(F)(F)F)c(/C=N/OC(=O)c2ccccc2Cl)c1SCc1ccccc1Cl,inactive
14,CCc1ccc(NC(=S)Nc2cccc3cnccc23)cc1,"inconclusive: 26.9 µM [inhibitor, partial curve]"
15,COc1ccc(NC(=O)c2ccco2)cc1NC(=O)COc1ccccc1,"inconclusive: 26.9 µM [inhibitor, partial curve, poor fit]"
16,COc1ccc(CCNC(=O)CSc2nc(O)c(CCC(C)C)c(=O)[nH]2)cc1OC,inactive
17,CCOC(=O)c1ccc(NC(=O)c2c(NCc3cccs3)sc3c2CCCC3)cc1,"inconclusive: 21.3 µM [inhibitor, partial curve]"
18,O=C(Nc1cccc(NC(=O)c2ccc(-c3cccc(Br)c3)o2)c1)c1ccco1,"inconclusive: 12 µM [inhibitor, partial curve]"
19,COc1ccc(C(=O)N/N=C/c2ccccc2OC(=O)c2ccccc2)cc1,"inconclusive: 23.9 µM [inhibitor, partial curve]"
20,Cc1ccccc1NC(=S)NNC(=O)c1cccc(Br)c1,"inconclusive: 23.9 µM [inhibitor, partial curve, poor fit]"
21,CC(/C=C1\SC(=S)N(NC(=O)c2cccc(O)c2)C1=O)=C\c1ccccc1,"inconclusive: 30.1 µM [inhibitor, single point]"
22,COC(=O)c1ccc(/C=C2/SC(=S)N(CCCC(=O)Nc3ccccn3)C2=O)cc1,"inconclusive: 12 µM [inhibitor, partial curve]"
23,Cc1sc2nc(C3CC3)nc(N3CCN(C(=O)c4ccc(F)cc4)CC3)c2c1C,inactive
24,COc1ccc(S(=O)(=O)NCC(c2ccco2)S(=O)(=O)c2cccs2)cc1C (configuration not stated),inactive

row,SMILES,Potency
1,CCc1ccc2nc(NC(=O)C3CSC4(C)CCC(=O)N34)sc2c1 (configuration not stated),active: 12 µM
2,CC1CN(C(=O)CCNC(=O)c2ccc(Br)cc2)CC(C)O1 (configuration not stated),inactive
3,COc1ccc(-c2cc(C(=O)Nc3ccc(S(=O)(=O)Nc4onc(C)c4C)cc3)c3ccccc3n2)cc1OC,active: 13.5 µM
4,O=C(Nc1cccc(NC(=O)c2cccnc2)c1)c1ccccc1,"inconclusive: 21.3 µM [inhibitor, partial curve]"
5,CC1CN(C(=O)CSc2nnc(NC(=O)NC(C)(C)C)s2)CC(C)O1 (configuration not stated),active: 23.9 µM
6,N=C1S/C(=C\c2ccc(-c3cccc(Cl)c3)o2)C(=O)N1c1nccs1,inactive
7,CCOC(=O)Nc1cccc(OCC(=O)Nc2ccc(OC)cc2OC)c1,"inconclusive: 30.1 µM [inhibitor, single point]"
8,COc1nc(NCc2cccnc2)nc(NC2CCCCC2)n1,"inconclusive: 15.1 µM [inhibitor, partial curve, poor fit]"
9,COc1ccc(Nc2cc(C(=O)NC3CCC(C)CC3)c3ccccc3n2)cc1OC (configuration not stated),"inconclusive: 4.78 µM [inhibitor, partial curve]"
10,O=C(O)c1ccc(NCCc2ccc(Cl)cc2)c([N+](=O)[O-])c1,"inconclusive: 33.8 µM [inhibitor, single point]"
11,COc1cc(-c2nc3ccc(N4CCN(C)CC4)cc3[nH]2)cc(OC)c1OC,active: 13.5 µM
12,Cc1ccc(-c2cc(C(=O)N/N=C/c3ccccc3)n[nH]2)o1,"inconclusive: 26.9 µM [inhibitor, single point]"
13,Cc1ccc(C)c(OCC(=O)Nc2ccc3c(c2)OCO3)c1,"inconclusive: 12 µM [inhibitor, partial curve]"
14,CCN(CC)c1ccc(C(=O)Nn2cnc3ccccc3c2=O)cc1,"inconclusive: 37.9 µM [inhibitor, partial curve, poor fit]"
15,O=C1C2C3C=CC(CC3)C2C(=O)N1/N=C/c1ccc(O)c(O)c1 (configuration not stated),"inconclusive: 23.9 µM [inhibitor, single point]"
16,Cc1ccc(OCCC(=O)OCC(=O)Nc2ccc3c(c2)OCCO3)cc1,"inconclusive: 37.9 µM [inhibitor, single point]"
17,Cc1nc(-c2ccccn2)nc(N2CCOCC2)c1Cl,inactive
18,c1ccc(Cn2cc(-c3ccccc3)cn2)cc1,"inconclusive: 30.1 µM [inhibitor, single point]"
19,COc1cccc(C(=O)Nc2cccc(S(=O)(=O)NC3=NCCC3)c2)c1,"inconclusive: 16.9 µM [inhibitor, partial curve]"
20,O=C(NCc1ccc(F)cc1)c1ccc2c(O)c(S(=O)(=O)c3ccccc3)c(=O)[nH]c2c1,"inconclusive: 37.9 µM [inhibitor, partial curve, poor fit]"
21,CCOC(=O)c1sc(NC(=O)c2ccc(S(=O)(=O)N3CCOCC3)cc2)nc1-c1ccccc1,inactive
22,CCCCn1c(NCc2ccc(OC)cc2O)nc2ccccc21,"inconclusive: 21.3 µM [inhibitor, single point]"
23,O=C(Nc1ccccc1)c1ccc(S(=O)(=O)N2CCOCC2)cc1,inactive
24,C/C(=N\NC(=O)c1ccn[nH]1)c1cn(C)nc1C,active: 12 µM

row,SMILES,Potency
1,COc1ccc(CNC(=O)CSc2nnc(NC(=O)c3ccccc3F)s2)cc1,active: 10.7 µM
2,CCCN(CCC)c1ncnc2nc[nH]c12,inactive
3,O=C1CC(c2ccccc2)CC(=NCCO)/C1=C(\O)CCCN1C(=O)c2ccccc2C1=O (configuration not stated),inactive
4,Cc1nnc(Nc2ccc3c(c2)ncn3C)c2ccccc12,"inconclusive: 37.9 µM [inhibitor, partial curve, poor fit]"
5,CCOCC(=O)Nc1cc(S(=O)(=O)N2CCOCC2)ccc1N1CCCCC1,"inconclusive: 30.1 µM [inhibitor, partial curve, poor fit]"
6,O=C(Nc1ccc(S(=O)(=O)Nc2ncccn2)cc1)c1ccc2ncsc2c1,"inconclusive: 37.9 µM [inhibitor, partial curve, poor fit]"
7,Cc1cc2nc(/C(C#N)=C\c3ccc(-c4ccccc4C(=O)O)o3)[nH]c2cc1C,active: 1.51 µM
8,COc1ccc(Nc2cccccc2=O)cc1,"inconclusive: 19 µM [inhibitor, partial curve]"
9,COc1cccc(CNc2cc(C)ccn2)c1O,"inconclusive: 23.9 µM [inhibitor, single point]"
10,Cc1ccc(-c2nc(CCN3C(=O)c4ccccc4C3=O)cs2)cc1,"inconclusive: 42.6 µM [inhibitor, partial curve, poor fit]"
11,CSc1ccccc1NC(=O)C1CC(c2ccccc2O)=NO1 (configuration not stated),"inconclusive: 26.9 µM [inhibitor, single point]"
12,COc1cccc(NC(=O)[C@@H]2CCCN2C(=O)[C@@H]2Cc3ccccc3CN2C(=O)OC(C)(C)C)c1,"inconclusive: 30.1 µM [inhibitor, partial curve, poor fit]"
13,CN(C)S(=O)(=O)c1cc(NC(=O)COC(=O)/C=C/c2ccco2)ccc1Cl,"inconclusive: 37.9 µM [inhibitor, partial curve, poor fit]"
14,CC1(C)Cc2c(sc3c2c(=N)n(Cc2ccco2)c(=O)n3Cc2ccc(Cl)cc2)CO1,inactive
15,Cc1cccc(C(=O)N2CCc3cc(CNS(=O)(=O)c4ccc(Cl)s4)ccc32)c1,inactive
16,COCCN(Cc1cc2cc(C)c(C)cc2nc1Cl)C(=O)N1CCOCC1,inactive
17,CC(C)CSc1ncnc2c1oc1nc3c(cc12)COC(C)(C)C3,"inconclusive: 23.9 µM [inhibitor, single point]"
18,COC(=O)c1ccc(COc2ccc(C)cc2[N+](=O)[O-])o1,active: 19 µM
19,CCOc1ccc(OCCC(=O)OCC(=O)NC(C)c2ccccc2)cc1 (configuration not stated),"inconclusive: 23.9 µM [inhibitor, single point]"
20,O=C(CNC(=O)c1ccccc1Cl)N/N=C/c1ccc2c(c1)OCO2,"inconclusive: 26.9 µM [inhibitor, single point]"
21,CC1CCN(C(=O)/C=C/c2ccc(C(C)(C)C)cc2)CC1,active: 15.1 µM
22,Cc1ccc(-n2c(C)nnc2SCC(=O)N(C)c2c(N)n(Cc3ccccc3)c(=O)[nH]c2=O)cc1,inactive
23,Cc1ccc(N=CC2=C(O)CC(c3ccco3)CC2=O)cc1 (configuration not stated),active: 10.7 µM
24,CCCOc1ccc(-c2nc(SC)[nH]c(=O)c2C#N)cc1OC,"inconclusive: 26.9 µM [inhibitor, single point]"

# Source: PubChem BioAssay AID588342 (National Center for Advancing Translational Sciences (NCATS), 2011)
